109 sequences from article PMC6212790 can be followed below.

The list shows a part of the results. At the low end of the ranking the order means little.

The test deals with T1, GST-Rok (full length) (UniProt O34857).
T1 sequence: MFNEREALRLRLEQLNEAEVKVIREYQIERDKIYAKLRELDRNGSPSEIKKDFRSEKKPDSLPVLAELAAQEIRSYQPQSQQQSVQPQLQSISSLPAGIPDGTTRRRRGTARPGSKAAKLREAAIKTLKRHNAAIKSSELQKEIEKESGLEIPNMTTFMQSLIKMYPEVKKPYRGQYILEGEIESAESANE
The test can be described thus: protein binding microarray.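 Further: rank score from −0.5 (least bound) to 0.5 (best bound).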 The conditions noted are these: Rok is a gene silencer of Bacillus subtilis; high values mean tight binding; most listed sequences are background and not binding sites; double strand, one strand shown.
GGAGCATA had a binding signal of 0.00366 E-score. Then ACTGCTTC, with -0.182 E-score; and CCCAAAGG, with -0.36 E-score.

On to CTCTTTGA, for which the binding signal is -0.07 E-score.

Sequence AAATTTGC showed a binding signal of 0.127 E-score. Take AGGCCGAC: the binding signal was -0.391 E-score. In the case of CTAATCAC, the binding signal is -0.0345 E-score.

Take TCCATCAA: the binding signal is -0.0208 E-score. Then ACCCTTTC, with -0.255 E-score. To GTTTGCCA belongs -0.0833 E-score; to AACGTGTG, 0.125 E-score; to AAAGGCAC, -0.127 E-score. Turning to CTGTGGGC, the binding signal is -0.155 E-score.

In turn, ATAAGTTA registered a binding signal of 0.204 E-score.

For the sequence AAAACTAT, the binding signal was determined as 0.433 E-score. To AGTGTTTC belongs -0.0146 E-score; to AGGGCACC, -0.205 E-score; to ATACTTCA, 0.138 E-score.

On to CCTAACCC, for which the binding signal was -0.3 E-score. Then AGGTCCTC, with -0.0286 E-score. To GAGGTGGA belongs -0.242 E-score; to GACGGAAC, -0.259 E-score; to CCGACGTA, 0.045 E-score. To CAGGCGTA belongs -0.0529 E-score; to CTGCATAC, 0.193 E-score. On to ACGGCAGC, for which the binding signal is -0.265 E-score. To AAGCGACA belongs -0.0731 E-score; to CTGAGGAA, -0.0322 E-score; to ATTGCGTG, 0.0201 E-score.

For the sequence AACCACTA, the binding signal was found to be 0.15 E-score.

As for AGAGTCAA, the binding signal was -0.252 E-score. As for AAGGGTCA, the binding signal is -0.233 E-score. Then AAGCCCTC, with -0.331 E-score; and CGCTTAGA, with -0.0374 E-score.

Turning to AAGGCCAA, the binding signal was -0.342 E-score.

Regarding ATCAAAGC, the binding signal amounted to 0.11 E-score. GCAACACC: the binding signal was -0.07 E-score. For the sequence TGCTTACA, the binding signal was -0.0637 E-score. Then GGATTCCA, with -0.154 E-score; and GGCTGCCA, with -0.271 E-score; and GCACAGAA, with 0.0896 E-score. Consider CTCCACGA, for which the binding signal is -0.0325 E-score. To AGATGGAT belongs 0.0425 E-score; to GTGCCTTA, -0.0209 E-score. As for GCCTCAAC, the binding signal is -0.0374 E-score. In the case of GAAACTGA, the binding signal is 0.0137 E-score. To AGGAACAT belongs 0.0116 E-score; to CTAGTTTA, 0.383 E-score; to GTTGATGA, 0.0198 E-score. Then ACTCCACG, with -0.0917 E-score. Then AAATGTGT, with 0.198 E-score; and ACGCCACG, with -0.16 E-score. For the sequence GCGCCGCC, the binding signal was -0.453 E-score. To GGTGCACA belongs -0.0671 E-score; to GTCGATAA, 0.104 E-score; to CAGCAGAC, -0.0507 E-score.

As to ACAGGCCC, the binding signal was -0.122 E-score. To ACCTACCA belongs 0.248 E-score. Then CGGGTTTC, with -0.216 E-score; and CAGAACGC, with 0.056 E-score; and AAGTACCG, with 0.119 E-score. As to GCCTGTAC, the binding signal was -0.0711 E-score. As for CGCAACTC, the binding signal was -0.103 E-score. Then ACGGACAA, with -0.0785 E-score; and CGGCGAAC, with 0.0581 E-score; and AATAAAGC, with 0.0306 E-score. Then GCTGTTAA, with 0.000796 E-score; and CTCAGATC, with -0.087 E-score; and GGTTGCAC, with -0.126 E-score. Then ACCGAACA, with -0.174 E-score; and CAGTAGTC, with -0.166 E-score; and ATCAACAT, with 0.0335 E-score. Consider AACATGCC, for which the binding signal is -0.0433 E-score. To CAGTGACG belongs -0.119 E-score; to ACTGACTG, -0.161 E-score; to CTATATCA, 0.231 E-score.

As to CGTCGTCA, the binding signal is -0.141 E-score.

As for CTTGACTC, the binding signal was -0.325 E-score. To GCCTGTCA belongs -0.156 E-score; to ACTCACGA, -0.0539 E-score. Then CATGTAAC, with 0.145 E-score; and AATTCAAA, with 0.0223 E-score. Then CACTTGGC, with -0.0702 E-score; and ATAGGTCG, with 0.164 E-score. Consider GGTGTAGA, for which the binding signal worked out at 0.196 E-score. Then AGCTACCC, with -0.139 E-score.

AAAACCCA: the binding signal came out at 0.0227 E-score.

As to CAACTAAC, the binding signal was 0.21 E-score. Then ACATTTCT, with 0.31 E-score. To GAATGATC belongs -0.161 E-score; to GACGCCAA, -0.212 E-score. To ACTACGTG belongs -0.0152 E-score; to CAAGCTAG, 0.201 E-score; to CGACCGAG, -0.237 E-score. Regarding GACTCGGA, the binding signal was -0.0776 E-score.

On to AGCGCCCG, for which the binding signal is -0.274 E-score. To TCCCGAGA belongs -0.101 E-score; to ATAGCATG, 0.154 E-score. AAGTAAAT came in with a binding signal of 0.303 E-score.

Take ATGATGGC: the binding signal was -0.0543 E-score. Then ACGGGCTA, with -0.0217 E-score; and CCGTTGTC, with -0.0545 E-score; and AGACCCTG, with -0.348 E-score. Then ACTCGGGA, with -0.117 E-score. On to AAGCGGTC, for which the binding signal is -0.348 E-score. To CGGCATGA belongs -0.101 E-score; to AGTCGACG, -0.0968 E-score; to GCTCCGCC, -0.368 E-score. To ACGTTCTG belongs 0.0265 E-score.
